Where “and” joins values, the source holds several entries; their conditions need not be identical. Identical values can stand only once. Hit rate of the full screen: of about 72,000 compounds, about 710 (0.99%) were called active. Inconclusive results, whose numbers are uncertain, are shown with a selection of clear calls. Calls come from the whole dose curve; as a rule, active = well fitted inhibition curve with a large enough effect; inconclusive = small, poorly fitted or top-dose-only effect; inactive = no such curve, though single readings can be large or run the other way. Potencies beside an inconclusive call are fits to weak or partial responses and may not hold up. Some compounds were tested as several samples or in several runs, with calls that do not always agree.
experiment: qHTS Assay for Inhibitors of the ERK Signaling Pathway using a Homogeneous Screening Assay; settings: HEK293-V1b, vasopressin-stimulated pERK AlphaScreen; activity, negative = inhibition: at 57.5 µM (top of the series) unless noted; note: nearly all actives have a fitted effect of over 55% in size
How it was run: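 Overnight-seeded V1b-HEK293 cells in 1% FBS got compound, then vasopressin (25 nM final, 5 min, 37C), then lysis buffer. AlphaScreen detection of phospho-ERK; activity normalized to basal and full-stimulation controls.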
% is set by controls: 0 for no effect and ±100 for the full control effect; potency is the fitted concentration of half-maximal effect; tags give direction and shape of the fitted curve.

| SMILES | Potency | activity, negative = inhibition |
| --- | --- | --- |
| COc1cc2c(cc1OC)-c1c(O)c(OC)cc3c1[C@H](C2)N(C)CC3 | inconclusive: 31.6 µM [inhibitor, single point] |  |
| Oc1cc2c(cc1O)[C@H]1c3ccccc3CN[C@@H]1CC2 | inconclusive: 10 µM [inhibitor, partial curve] |  |
| CNCCc1ccc(O)c(O)c1 | inconclusive: 39.8 µM [inhibitor, partial curve] |  |
| CCCCn1c(O)c(C(CC)=NCc2ccc3c(c2)OCO3)c(=O)[nH]c1=O | inconclusive: 25.1 µM [inhibitor, partial curve] |  |
| O=C1C=CC(=O)c2c(O)cccc21 | inconclusive: 6.31 µM [inhibitor, partial curve] |  |
| CCN1C(=O)/C(=C2\C=Cc3ccccc3N2CC)OC1=S | active: 15.8 µM |  |
| CC1=NCCc2c1[nH]c1cc(O)ccc21 | inactive |  |
| C=CCn1c(O)c(C(CC)=NCc2cc(OC)cc(OC)c2)c(=O)[nH]c1=O | inconclusive: 12.6 µM [inhibitor, partial curve] |  |
| O=[N+]([O-])c1cc(O)c(O)c([N+](=O)[O-])c1 | inconclusive: 39.8 µM [inhibitor, single point] |  |
| CC(C)OCCCNC(=O)c1c(N)n(CC2CCCO2)c2nc3ccccc3nc12 (configuration not stated) |  | inactive: 4.2% |
| c1ccc(C2NCc3ccccc3-n3cccc32)cc1 (configuration not stated) | inconclusive: 25.1 µM [inhibitor, single point] |  |
| COc1ccc(-c2nnc3sc(C4CCCCC4)nn23)cc1OC | inconclusive: 2 µM [inhibitor, partial curve] |  |
| COc1cc(N)ccc1Cc1ccc(N)cc1OC | inconclusive: 39.8 µM [inhibitor, single point] |  |
| CC1=CC(=O)C2=C(C)CC(O)C3C(C)C(=O)OC3C12 (configuration not stated) | inconclusive: 31.6 µM [inhibitor, single point] |  |
| CCCCn1c(NC(=O)c2ccco2)c(C(=O)OCC)c2nc3ccccc3nc21 |  | inactive: -4.39% |
| CCCCc1nc2ccccc2c(=O)n1-c1ccc(O)cc1 | inconclusive: 10 µM [inhibitor, partial curve] |  |
| CC1=CC(=O)c2c(O)cccc2C1=O | inconclusive: 10 µM [inhibitor, partial curve, poor fit] and inconclusive: 20 µM [inhibitor, partial curve, poor fit] |  |
| Cc1cccc(N2CCc3c2nc2ccccc2c3N)c1 | active: 25.1 µM |  |
| CCCCCCC[n+]1ccc(-c2cc[n+](CCCCCCC)cc2)cc1 |  | inactive: -20.9% |
| c1cc2c(cc1C1OC[C@@H]3C(c4ccc5c(c4)OCO5)OCC13)OCO2 (some centres not stated) |  | inactive: 30.6% |
| COc1cccc(-n2cnc3scc(-c4cccs4)c3c2=O)c1 | inconclusive: 20 µM [inhibitor, partial curve] |  |
| Cc1cc(S(=O)(=O)NCC(C)C)ccc1OCC(=O)N1CCN(Cc2ccccc2)CC1 | inconclusive: 31.6 µM [inhibitor, partial curve] |  |
| CN1Cc2ccccc2[C@@H]2c3cccc4[nH]cc(c34)C[C@H]21 | inconclusive: 15.8 µM [inhibitor, partial curve] |  |
| [O-][Br+2]([O-])O | inconclusive: 100 µM [inhibitor, partial curve, poor fit] |  |

| SMILES | Potency | activity, negative = inhibition |
| --- | --- | --- |
| C/C=C/C=O | inconclusive: 15.8 µM [inhibitor, single point] |  |
| CCOC(=O)c1c(C)n(Cc2ccccc2)c2ccc(OCC(O)CN3C(=O)CNC3=O)cc12 (configuration not stated) | inconclusive: 20 µM [inhibitor, partial curve] |  |
| CN(C)P1(N(C)C)=NC(C(F)(F)F)=NC(C(F)(F)F)=N1 | inconclusive: 39.8 µM [inhibitor, single point] |  |
| CC(C)NC[C@H](O)c1ccc(N)c(C#N)c1 | inconclusive: 0.004 µM [inhibitor, full curve, poor fit] |  |
| CCCCn1c(O)c(C(CC)=NCCc2ccccc2)c(=O)[nH]c1=O | inconclusive: 31.6 µM [inhibitor, single point] |  |
| C[C@H](N[C@@H](C)CCc1ccccc1)[C@H](O)c1ccc(O)cc1 | inconclusive: 0.126 µM [inhibitor, partial curve] |  |
| CCCN(CCC)c1c([N+](=O)[O-])cc(C(F)(F)F)cc1[N+](=O)[O-] | inconclusive: 7.94 µM [inhibitor, full curve, poor fit] |  |
| Cc1ccc2nc(N3CCN(C)CC3)[nH]c2c1 |  | inactive: -12.6% |
| Cc1cc(O)ccc1Cl |  | inconclusive: -33.8% [inhibitor] |
| Nc1c(C(=O)OC2CCCCC2)c2nc3ccccc3nc2n1CC1CCCO1 (configuration not stated) |  | inactive: 23% |
| O=C1CCCC2[C@@H]3CCCN4CCC[C@@H](CN12)C34 (some centres not stated) | inconclusive: 39.8 µM [inhibitor, single point] |  |
| CCOC(=O)C(C)Oc1cc(C)cc2oc(=O)c3c(c12)CCCC3 (configuration not stated) |  | inactive: 12.6% |
| Cn1nc(-c2ccc(OCC(=O)N3CCN(Cc4ccccc4)CC3)cc2)c2ccccc2c1=O | active: 31.6 µM |  |
| Cc1ccnc(-n2c(C)nc3ccccc3c2=O)c1 |  | inactive: 5.92% |
| CC(CCl)OC(C)CCl (configuration not stated) | inconclusive: 39.8 µM [inhibitor, single point] |  |
| CSc1nc2ccccc2n1C(=O)Oc1ccccc1 | inconclusive: 1.58 µM [inhibitor, full curve, poor fit] |  |
| O=C(O)[C@H]1CCN1 |  | inactive: -5.93% |
| O=C1C=CC(=O)c2c1ccc1c2ccc2ccccc21 | active: 12.6 µM |  |
| CN(C)C(=S)SSC(=S)N(C)C | inconclusive: 25.1 µM [inhibitor, partial curve] |  |
| CN(C)c1ccc(Cc2ccc(N(C)C)cc2)cc1 | inconclusive: 12.6 µM [inhibitor, partial curve] |  |
| CCC1C(=O)OCC1Cc1cncn1C (configuration not stated) |  | inactive: 4.3% |
| CC(C)C(=O)N1CCC(CN=Cc2c(O)n(C3CCCCC3)c(=O)n(C3CCCCC3)c2=O)CC1 | inconclusive: 39.8 µM [inhibitor, single point] |  |
| CC1CC[C@@]2(NC1)O[C@@H]1C[C@H]3C4CC=C5C[C@@H](O)CC[C@]5(C)C4CC[C@]3(C)[C@H]1[C@@H]2C (some centres not stated) | inconclusive: 25.1 µM [inhibitor, partial curve, poor fit] |  |
